In all, about 1,400 sequences were measured (“thermal melting temperature (Tm) of peptide-HLA complex”: median about 60, lowest 2% from about 45 on). This is one part of the list.
target: HLA-B*07:02; assay: thermal melting temperature (Tm) of peptide-HLA complex; higher = more thermostable pHLA complex; details: C1R-B*07:02
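Also: cell lysates heated 10 min at 37–73 °C, remaining pHLA pulled down with pan-class I antibody, peptides quantified by DIA-MS versus 37 °C, Tm where half the complex is lost.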

Sequence | thermal melting temperature [°C]
GPASSLTAL | 56.6
RPTGGVGAV | 54.3
NPRQINWTVL | 60.1
SPRDPVLTL | 64.4
APAVPALRL | 62.7
APRDLVISI | 63
RPHFSIIAI | 57.8
HPRSPTPTLP | 58
KPAGPPGILAL | 62.3
APIGLKAVV | 62.1
KPRSPVVEL | 61.3
RPAGVGVVV | 56.4
FPRPGGLL | 62.2
VPRPPSLLA | 60.1
APRPLQAGPA | 47.3
RPQQIPVL | 59.5
SPFHRNLFL | 60.1
RVRDINEAF | 59.1

Sequence | thermal melting temperature [°C]
SPRDSPAVSL | 58.9
KPPVGTWLGL | 55.7
SPDTAIRSGL | 56.7
SPLPSPSAM | 63.8
RPADSMLNVL | 62
GPRTAALGLL | 60.6
VPNQKELTEL | 58
LPRAVGTQTL | 58.4
APIGSRGPQL | 58.6
RPSVPAALPL | 61.7
QPNLKLLAM | 62.9
APELLRALL | 62.9
APAAFGLVSF | 63.7
RPADKRSFIP | 61.8
APFPRGEL | 61.5
VPQLTRPGSFL | 60.9
VPRASVPDGFL | 62.3
APRPPSLAVP | 59.1

From the supplement of paper PMC7726561
